In all, about 340,000 compounds went through this assay and about 6,900 (2%) were called active. Rule as the data show it: active = inhibition above about 30%; inactive = below that, where a call was filed. This is a selection; strong and weak results do not stand in their true shares. Where no call is shown, the source filed none.

The target of the assay is D(2) dopamine receptor (Homo sapiens) (UniProt P14416). Nature of the assay: HTS Assay for Allosteric Antagonists of the Human D2 Dopamine Receptor: Primary Screen for Antagonists. Also: 0% is about no effect. Particulars: HEK293 TREx D2 cells, calcium flux, dopamine EC80; at 10 µM; stronger effect = higher value. In a few lines: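 Tetracycline-induced HEK293 TREx cells expressing D2 receptor forced-coupled to calcium signalling, loaded with no-wash calcium dye. Compounds added and calcium flux read 180 s, then dopamine added at EC80 and read a further 180 s.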
Sequence of UniProt P14416 (P14416 whole entry, looked up): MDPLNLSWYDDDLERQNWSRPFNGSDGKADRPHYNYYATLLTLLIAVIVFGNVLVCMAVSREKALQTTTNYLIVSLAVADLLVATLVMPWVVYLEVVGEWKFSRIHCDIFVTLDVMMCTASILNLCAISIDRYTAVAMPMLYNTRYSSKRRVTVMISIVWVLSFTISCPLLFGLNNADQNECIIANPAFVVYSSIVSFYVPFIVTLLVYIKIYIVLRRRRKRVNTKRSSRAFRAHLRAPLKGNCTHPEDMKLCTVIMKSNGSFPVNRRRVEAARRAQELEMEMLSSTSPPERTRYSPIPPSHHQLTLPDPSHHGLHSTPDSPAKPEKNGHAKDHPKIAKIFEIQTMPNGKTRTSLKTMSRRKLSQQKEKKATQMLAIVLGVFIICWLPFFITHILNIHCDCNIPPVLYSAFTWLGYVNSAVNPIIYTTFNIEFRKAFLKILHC
As for `CC(=O)Nc1ccc2nc(-c3cc(C)ccc3C)[nH]c2c1`, the inhibition turned out to be 20.1%. Regarding `CCc1cccc(-n2nnc(-c3nsc(NC(=O)c4cccs4)n3)c2C)c1`, the inhibition was determined as 12.9%.

Regarding `Cc1ccc(OCc2ccc(-c3nc(C#N)c(NCc4cccnc4)o3)o2)cc1`, the inhibition was -7.88%. The result for `CCCCN(CC)CCNC(=O)c1cn(C)c(=O)c2c1c1ccccc1n2C` reads -23.3%. The result for `CCN1CCC[C@H]1CNC(=O)c1cc(S(N)(=O)=O)ccc1OC` reads active: 87.4%.

Turning to `NC1=NC[C@H](Cc2ccc(O)cc2)N1CCc1cccc(F)c1`, the inhibition was active: 38.9%. As for `Cc1ccc(CN2C(=O)C3(c4ccccc42)N(c2cccc(F)c2)C(=O)CS3(=O)=O)cc1` (stereo not given), the inhibition was found to be 2.55%. Turning to `CCOc1ccc(CNC(=O)Cn2cc3c(n2)-c2c(oc(C(=O)N4CCOCC4)c2C)CC3)cc1`, the inhibition was -1.56%. In the case of `Cc1ccc(Cl)cc1NC(=O)Cn1c(=O)oc2cc(S(=O)(=O)N3CCCC3)ccc21`, the inhibition is -3.34%. The result for `Cc1ccc2c(CC(=O)Nc3ccc(S(=O)(=O)N4CCCCC4)cc3)coc2c1` reads -8.54%. Turning to `CCOc1ccccc1N(C)C(=O)C1CCCN(c2ncnc3c2nc2n3CCCCC2)C1` (stereo not given), the inhibition was 12.9%. The result for `Cc1ccc(NC(=O)c2cc(-c3ccc(Br)s3)nc3ccccc23)cc1F` reads -1.95%; that for `Cc1cc(C)c2c(=O)nc(SCc3ccccc3C)n(C3CC3)c2n1`, 14.9%; that for `COCCn1c(=NC(=O)c2ccc3c(c2)OCCO3)sc2cc(C(=O)OC)ccc21`, -8.03%. As to `COc1ccc(C(=O)OC2=C(C(=O)c3ccccc3)N(C)S(=O)(=O)c3ccccc32)cc1OC`, the inhibition amounted to 27.3%.

For the molecule `CCNC(=O)c1c(NC(=O)Cc2coc3cc(C)cc(C)c23)sc2c1CCCC2`, the inhibition worked out at 2.88%. As to `COc1ccccc1N1CCN(S(=O)(=O)c2c(C)sc3ncn(CC(=O)N(C)c4ccc(Cl)cc4)c(=O)c23)CC1`, the inhibition was 1.11%. The result for `Cc1c(C(=O)N2CCC(c3nc4ccccc4s3)CC2)oc2ccc(Cl)cc12` reads -12.7%; that for `Oc1c(C(c2ccccc2F)N2CCN(Cc3ccccc3)CC2)sc2nc(-c3ccco3)nn12` (stereo not given), -9.99%. With `COC(=O)NCC(c1cccnc1)N1CCN(c2ccc(F)cc2)CC1` (stereo not given), the inhibition is -18.1%. Turning to `Cc1ccc(-n2ncc3c(NCCC4=CCCCC4)ncnc32)cc1`, the inhibition came to 3.71%.

For `Cc1ccc(Cl)cc1NC(=O)C(C)n1nc(-c2ccccc2)ccc1=O` (stereo not given), the inhibition is -3.77%. As for `CCc1ccccc1NC(=O)CCNS(=O)(=O)c1ccc2c(c1)CCN2C(=O)C1CC1`, the inhibition was -1.73%. The result for `Cn1c(=O)c2c(nc(SCC(=O)Nc3ccccc3F)n2Cc2ccc(Cl)cc2)n(C)c1=O` reads 18%.

`COc1ccc(C(=O)Nc2nnc(SCc3cc(=O)c4cc(C)cc(C)c4[nH]3)s2)cc1`: the inhibition was -21.4%. The value for `O=C(NCCN1CCOCC1)c1cc2sccc2n1Cc1ccc(F)cc1` was active: 37.8%; that for `Cc1ccc(CNC(=O)CCCn2c(=O)c3ccccc3n(CC(=O)Nc3ccc(C)c(C)c3)c2=O)cc1` was -3.62%. For the molecule `CCOc1ccc(CCNC(=O)CCCn2c(=O)c3cccn3c3ccccc32)cc1`, the inhibition is -16.4%. As for `CCCn1c(CCC(=O)Nc2ccc(OCC)cc2)nc2cccnc21`, the inhibition stood at 5.69%. The value for `Cc1ccc(-n2c(=O)c3c(C)c(C)sc3n(CC(=O)NCc3ccccc3)c2=O)cc1C` was 7.71%; that for `CC1CCc2c(sc(NC(=O)C3c4ccccc4Oc4ccccc43)c2C#N)C1` (stereo not given) was 5.55%.

As for `Cc1cc(C)c(C(=O)c2ccc(C(=O)NC(C)(C)C)cc2)c(C)c1`, the inhibition was active: 40.1%. Take `CCOC(=O)c1c(C)oc2nc(C)nc(NCc3ccc(F)cc3)c12`: the inhibition was determined as 4.72%.

Take `COc1ccc(C2=CC(c3ccccc3Cl)n3nc(-c4ccc(Cl)cc4)nc3N2)cc1` (stereo not given): the inhibition was -20.3%. The result for `Cc1ccc(Cl)cc1N1CCN(C(=O)Cn2cnc3sc(C)c(S(=O)(=O)N4CCC(C)CC4)c3c2=O)CC1` reads 7.26%. Consider `COC(=O)c1scc(-c2ccc(C)cc2)c1S(=O)(=O)N1CCN(c2ccc(C(C)=O)cc2)CC1`, for which the inhibition was 9.94%. Take `Cc1nc2nc(NCc3ccc(Cl)cc3)[nH]n2c(=O)c1Cc1ccccc1`: the inhibition was -4.18%. The result for `Cc1nc2ccn(Cc3cccs3)c(=O)c2cc1C(=O)N1CCN(c2ccccc2F)CC1` reads -9.8%; that for `O=C(NCc1ccccc1CN1CCCC1)c1cccc(S(=O)(=O)Nc2ccc(F)cc2)c1`, active: 61.7%.

`O=C1C(=O)N(C2CCN(C(=O)c3ccccc3Cl)CC2)CCN1Cc1ccc(F)cc1`: the inhibition was 3.1%. The result for `CC1CCN(S(=O)(=O)c2ccc3c(c2)N(CC(=O)NCCc2ccccc2)C(=O)CO3)CC1` reads 5.84%; that for `COc1cccc(NC(=O)c2ccc3c(c2)CCN3S(C)(=O)=O)c1`, -25.2%. The result for `Cc1ccc(CNC(=O)c2ccc(CSCc3cccc(C)c3)o2)cc1` reads -1.99%; that for `COc1cccc(-c2nnc(-c3ccccc3NC(=O)c3ccc(F)cc3F)o2)c1`, 6.48%; that for `Cc1ccc(C)c(OCCn2c(CCNC(=O)C3CCCCC3)nc3ccccc32)c1`, -8.94%.

Turning to `Cc1ccc(N2CC(C(=O)N3CCC(c4nc5ccccc5[nH]4)CC3)CC2=O)cc1C` (stereo not given), the inhibition was active: 33.6%. As for `CC1(c2ccccc2)CC(C)(C)N(C(=O)c2cccc(Cl)c2)c2ccccc21` (stereo not given), the inhibition is -4.05%. The result for `COc1ccccc1NC(=O)c1ccc(CN2C(=O)C(C)=C(c3ccc(C)c(C)c3)S2(=O)=O)cc1` reads 6.47%; that for `Cc1noc(-c2ccc(NC(C)c3ccccc3)c([N+](=O)[O-])c2)n1` (stereo not given), 11.2%. The result for `CCC(=O)N1CCc2cc(Br)cc(S(=O)(=O)N3CCN(c4ccccc4OC)CC3)c21` reads -7.06%. As to `CCOC(=O)CC(=O)CSc1nc2ccsc2c(=O)n1Cc1ccccc1`, the inhibition was found to be 8.84%. Turning to `CN(C)S(=O)(=O)n1cnc([C@@H]2[C@@H]3C(=O)OC[C@@H]3C[C@]23N=CN(Cc2ccccc2)C3=O)c1`, the inhibition is active: 30.9%.

Consider `Cc1ccc(CNC(=O)c2nc(SCc3ccccc3C)ncc2Cl)cc1`, for which the inhibition was determined as 6.83%.

For the molecule `CCOC(=O)c1ccc2c(c1)N(Cc1ccc(F)cc1Cl)C(=O)c1ccccc1S2(=O)=O`, the inhibition was found to be 1.56%.

Regarding `CCN(CC)CC#CCC(O)(c1ccccc1)c1ccc(Br)cc1` (stereo not given), the inhibition was active: 34.5%. The value for `COc1cc(OC)c(NC(=O)Nc2cccc(OCc3cc(=O)n4ccccc4n3)c2)cc1Cl` was 6.83%; that for `O=C(CN1CCCCCC1)Nc1ccc(Br)cc1` was active: 76.8%. The result for `COc1ccc(-n2cc(-c3ccccc3)c3c(Nc4ccc(OC)c(OC)c4)ncnc32)cc1` reads -3.47%; that for `Cc1cc2nn(-c3ccc(F)cc3)nc2cc1NC(=O)c1cccc2c(Cl)cccc12`, -9.36%. `Nc1nnnn1/N=C/c1cccc(OCc2ccccc2Cl)c1`: the inhibition is active: 30.5%.

Consider `CCCC(=O)Nc1nnc(S(=O)(=O)N2CCCCCC2)s1`, for which the inhibition was 10.9%. The value for `COC(=O)C(NC(=O)CCc1c(C)nc2c(-c3ccccc3)c(C)nn2c1C)C(C)C` (stereo not given) was 1.76%. The value for `Cc1ccc(Cl)cc1NC(=O)Cn1c(=O)n(CCC(=O)NCc2ccc3c(c2)OCO3)c(=O)c2sccc21` was 24.7%; that for `O=C(NCCS(=O)(=O)N1CCN(c2ccc(F)cc2)CC1)c1ccco1` was active: 33.1%. In the case of `Nc1nc(NCc2ccco2)nc(N2CCN(Cc3ccccc3)CC2)c1[N+](=O)[O-]`, the inhibition was active: 88.8%. The result for `CC1=C(c2ccc(F)cc2)S(=O)(=O)N=C1N1CCC(C(=O)NCCc2ccccc2C)CC1` reads 13.5%.

In the case of `COc1ccc(C2C(C(=O)Nc3ccccc3)=C(C)Nc3nc(SCC(=O)c4ccc(C)cc4)nn32)cc1` (stereo not given), the inhibition stood at 6.39%. The result for `CCOC(=O)c1cn(CC(=O)Nc2ccc(OC)cc2OC)nn1` reads 5.69%; that for `O=C(C1CCCN(S(=O)(=O)c2ccc(Br)s2)C1)N1CCN(c2ccccc2F)CC1` (stereo not given), -5.34%; that for `CCOc1ccc(CCNC(=O)c2ccc3c(c2)N(Cc2ccc(C)cc2)CCS3)cc1`, -22.6%. In the case of `Fc1ccc(Nc2ncnc3onc(-c4ccc(Cl)cc4)c23)cc1Cl`, the inhibition is -12.3%. As to `CCN(CC)CCCNc1sc(S(=O)(=O)c2ccccc2)nc1S(=O)(=O)c1ccc(Cl)cc1`, the inhibition is 27.2%. The result for `CCN(C(=O)c1sc2nc3n(c(=O)c2c1C)CCCCC3)c1ccc(OC)cc1` reads 21.1%. With `Cc1ccc(C(=O)c2cn(Cc3ccccc3)c3ccccc3c2=O)cc1`, the inhibition was -0.0133%. The result for `Cc1cccc(-c2nc3cc(NC(=O)COc4ccccc4F)ccc3o2)c1` reads 9.99%. With `Cc1ccccc1OCC(=O)Nc1ccccc1C(=O)OCc1cc(=O)n2nc(C3CC3)sc2n1`, the inhibition is 7.22%. The value for `Cc1ccc(-c2c3c(=O)n(C)c(=O)n(C)c3c3c(C)nc4ccccc4n23)cc1` was 9.48%; that for `COc1ccc(NC(=O)Cn2ccn(-c3ccc(C)c(C)c3)c(=O)c2=O)cc1Cl` was -26.8%; that for `Cc1cc(N2CCN(c3ccc(F)cc3)CC2)n2cnnc2n1` was 8.91%. The value for `COc1ccc(Cl)cc1NC(=O)CSc1nc(=O)[nH]c2c1CCC2` was -1.82%; that for `CCC(=O)c1ccccc1OCCN1CCN(CC)CC1` was active: 37.5%; that for `O=C(O)c1cc(S(=O)(=O)O)ccc1O` was active: 42.4%. The result for `O=C(NNC(=O)c1ccc(F)cc1F)c1ccc2c(c1)OCO2` reads active: 37%. `COCCOc1ccc(C(F)(F)F)cc1NC(=O)c1ccc(C(F)(F)F)cc1`: the inhibition is active: 58.6%. Take `O=C(NCC1OCCc2ccccc21)c1cc(COc2ccc(F)cc2Cl)on1` (stereo not given): the inhibition was active: 50.2%. The value for `O=C(CSc1nc(=O)n(Cc2ccccn2)c2c1CCC2)Nc1cccc(Cl)c1` was 2.83%; that for `COCCNC(=O)CSc1nc(-c2ccc(C)cc2)[nH]c1-c1ccc(OC)cc1` was 23.3%; that for `CCCc1nn2c(=O)cc(COC(=O)c3ccccc3NC(=O)c3ccc(OCC)cc3)nc2s1` was -19.2%. On to `O=C(Nc1ccc(Cl)cc1F)c1cc(S(=O)(=O)NC2CCCCCC2)ccc1F`, for which the inhibition is 6.06%. Consider `CCc1ccc(NC(=O)CN2C(C(=O)OC)=C(c3ccccc3)c3ccccc3S2(=O)=O)cc1`, for which the inhibition was -8.71%. The value for `CC(C)CCNC(=O)C1CCC(CNS(=O)(=O)c2cccc3nsnc23)CC1` (stereo not given) was 5.18%; that for `CC(C)=CC(=O)N1CC[C@@H](N2CCN(c3ccccc3F)CC2)[C@H](O)C1` was active: 46.3%; that for `OC(c1ccccc1)c1nc2ccccc2n1Cc1c(F)cccc1Cl` (stereo not given) was -4.97%. The value for `Cc1oc2ncnc(N3CCOCC3)c2c1C(=O)Nc1ccc(Br)cc1F` was 2.38%; that for `Fc1ccc(-n2nc(-c3ccccc3)c3cnc4ccccc4c32)cc1Cl` was 1.19%.

One may read the inhibition as the change of the read-out against control, counted positive when it falls.

Source of the values: PubChem BioAssay AID485344 (National Center for Advancing Translational Sciences (NCATS), 2010).
